The other results are listed elsewhere or left out.
What follows are sequences tested against T1, OsWOX13 (Oryza sativa, UniProt Q5QMM3 1-267) (assay: protein-binding microarray (RPBM); PBS, 2% BSA, 51.3 ng/ul salmon testes DNA, 50 uM zinc acetate, 200 nM TF, 25 C, 1 h; high values mean tight binding). Conditions: protein: recombinant; tags: N-terminal polyhistidine and DsRed monomer fusion (pET32a); label: CyDye5-dUTP incorporated in the synthesized complementary strand; 3' TTTTT single-stranded linker to array surface; dsDNA, one strand shown.
T1 sequence: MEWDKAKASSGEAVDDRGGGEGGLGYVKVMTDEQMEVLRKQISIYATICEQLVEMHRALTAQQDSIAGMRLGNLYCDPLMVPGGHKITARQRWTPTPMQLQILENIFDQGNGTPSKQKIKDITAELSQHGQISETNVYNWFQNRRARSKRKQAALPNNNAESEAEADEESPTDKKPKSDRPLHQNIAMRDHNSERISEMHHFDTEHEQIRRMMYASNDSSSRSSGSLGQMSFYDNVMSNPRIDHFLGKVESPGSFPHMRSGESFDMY
Procedure, shortened: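 In PBS with 2% BSA, salmon testes DNA and 50 µM zinc acetate, 200 nM protein was incubated on a custom Agilent array at 25 °C for 1 h and then washed off. The array had been made double-stranded by primer extension with Cy5-dUTP and blocked with 2% BSA. The proteins were transcription factors fused N-terminally to polyhistidine and DsRed, expressed in E. coli BL21-CodonPlus and purified on Ni–NTA. The binding signal is per-feature fluorescence intensity (arbitrary units) from an Axon 4000B scanner.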

| Sequence | binding signal |
| --- | --- |
| AAACAATCACGGATATCCAAATAAACAACCCGAAACCGAACGGAGTCACCTAGTGCAG | 8660 fluorescence intensity (a.u.) |
| TAGATTAATTTGGAATGGAGGGAGTATATGAGTAAGCTAACGGAGTCACCTAGTGCAG | 15400 fluorescence intensity (a.u.) |
| GAAAAGTACCCGTGATTGCAACAATTAAAGACGACAGGGACGGAGTCACCTAGTGCAG | 14100 fluorescence intensity (a.u.) |
| CTTAATTACGTCATCGTCAACTCGCCGTTTAGTTTAGTCTCGGAGTCACCTAGTGCAG | 37600 fluorescence intensity (a.u.) |
| CCCAATTGATGGCCCTAACAAAGTCAACAGCTGGATTATACGGAGTCACCTAGTGCAG | 16200 fluorescence intensity (a.u.) |
| TAGATTGACTATAGACACTAAAGTTAAGAAAAGAATAACCCGGAGTCACCTAGTGCAG | 29300 fluorescence intensity (a.u.) |
| CTAATTGGACATGAGTAGAGAGTTGATGCCGGGCTGTCACCGGAGTCACCTAGTGCAG | 18700 fluorescence intensity (a.u.) |
| CAGGATTGACACTCGAACAACAGCTACCGCGTACAGCAAACGGAGTCACCTAGTGCAG | 21300 fluorescence intensity (a.u.) |
| CTTTTCTTTTATTGTGGCTTGATTTATCACTAAAGGAACTCGGAGTCACCTAGTGCAG | 3250 fluorescence intensity (a.u.) |
| AAAAGTTATTCCATTAATTAGCTACTCGGTCCATGCAAAGCGGAGTCACCTAGTGCAG | 8950 fluorescence intensity (a.u.) |
| TCTTTTAATGATTAGAGATGATATATGAGTTTGCACCTGACGGAGTCACCTAGTGCAG | 28600 fluorescence intensity (a.u.) |
| AATTGATGACATTTTATACCATTCAAAGTTTCAAACCTCTCGGAGTCACCTAGTGCAG | 12600 fluorescence intensity (a.u.) |
| ATAGATTAATAGATGGGATGTGAATAGAGAAGTAGTATAGCGGAGTCACCTAGTGCAG | 36400 fluorescence intensity (a.u.) |
| GGATTTGATTTGGGACAGATTTGAGATTAGGGTTTGGATTCGGAGTCACCTAGTGCAG | 30200 fluorescence intensity (a.u.) |
| AACAATCAATTATCCGGCAAACTTCCGGACCGCATTGACACGGAGTCACCTAGTGCAG | 26900 fluorescence intensity (a.u.) |
| TCCTGACACCTCCCAATCAATTCCCATCTCCGCCACTGCTCGGAGTCACCTAGTGCAG | 15600 fluorescence intensity (a.u.) |
| ATATTATTTGATTTATTGTTAAATATACTTTCATGTACACCGGAGTCACCTAGTGCAG | 18500 fluorescence intensity (a.u.) |
| ATTAGGCAAGGTGATTAGTGATACATTATGTGCTGTACCTCGGAGTCACCTAGTGCAG | 4420 fluorescence intensity (a.u.) |
| ACATCAAATTCAAATTTGTTCCTTTCCTATACGGTTAGTACGGAGTCACCTAGTGCAG | 3750 fluorescence intensity (a.u.) |
| AATCAGATAAACAAATTGAAATTTGAATTGAACTAAACAACGGAGTCACCTAGTGCAG | 6660 fluorescence intensity (a.u.) |
| CTAGAATTTGACATAAATCAGTTTTGTTTTCTATAAGAACCGGAGTCACCTAGTGCAG | 12600 fluorescence intensity (a.u.) |

| Sequence | binding signal |
| --- | --- |
| ACCAGCTCAGTTAATTGCAAGCAAGAATAAACAAGCTCGACGGAGTCACCTAGTGCAG | 8180 fluorescence intensity (a.u.) |
| TATATACCATGATTAACACTATTGTATACCTCTGCCTCTTCGGAGTCACCTAGTGCAG | 3690 fluorescence intensity (a.u.) |
| TTTAACACAAATGAGAACTTGATCGATTCCTCGTATTGTTCGGAGTCACCTAGTGCAG | 3850 fluorescence intensity (a.u.) |
| ATAAATAGACTGAAATGTCCTCGTTCTCTGTTTCTCTTTCCGGAGTCACCTAGTGCAG | 28700 fluorescence intensity (a.u.) |
| TTATAATTGTCATGCAATTATAATAACGTGGGTTAAATATCGGAGTCACCTAGTGCAG | 27900 fluorescence intensity (a.u.) |
| TTTATGACTTTAAATAATTAATAGTACTATTATCTAAACTCGGAGTCACCTAGTGCAG | 4140 fluorescence intensity (a.u.) |
| TACCCGGGTGATTAGAATCCATATAAGAGCAGACCGCTCTCGGAGTCACCTAGTGCAG | 14400 fluorescence intensity (a.u.) |
| AAAGTTTAAACATAATAATTGATTTGCAGCTACCATAAGACGGAGTCACCTAGTGCAG | 40600 fluorescence intensity (a.u.) |
| TATAATGTAATTGTAGTATAATTGCATTATAACTTACATGCGGAGTCACCTAGTGCAG | 42500 fluorescence intensity (a.u.) |
| AATAAATAGTTTGATTGAATTATAGATAGGTGCCAAGAGGCGGAGTCACCTAGTGCAG | 48400 fluorescence intensity (a.u.) |
| TTAGATAGATTAATATGTGATAGATCTTCACAAACAGACACGGAGTCACCTAGTGCAG | 54900 fluorescence intensity (a.u.) |
| CATTAATTTCGCAATTAATTTTGCTCGATCGTTCTTGCATCGGAGTCACCTAGTGCAG | 49600 fluorescence intensity (a.u.) |
| ACTTTAATAAATAGATAAGAAATCCTGCTAAAATTTTAGCCGGAGTCACCTAGTGCAG | 4000 fluorescence intensity (a.u.) |
| AGCTAAAAGATCAATGATTTACAGAATAACAAGGGCAAAACGGAGTCACCTAGTGCAG | 5960 fluorescence intensity (a.u.) |
| ACCTAATTAACCATCCGGCATGATCCATGCATGGCACAGCCGGAGTCACCTAGTGCAG | 25400 fluorescence intensity (a.u.) |
| TAAAATTGGAATGATGTATTGGAAAAGTTAGAAATTTATGCGGAGTCACCTAGTGCAG | 14300 fluorescence intensity (a.u.) |
| CAGTGTGATAATTTGCGTGTGGGAGACTAGTGGCACTATGCGGAGTCACCTAGTGCAG | 4050 fluorescence intensity (a.u.) |
| GTGTTAATTATGTGATAAGTTGCCTAAGATCAATTGCCAGCGGAGTCACCTAGTGCAG | 34600 fluorescence intensity (a.u.) |
| GCTGTTGTGATTATTGCCTGTTTCTCCACATCGGCTTGAACGGAGTCACCTAGTGCAG | 18100 fluorescence intensity (a.u.) |
| CATACTATTTAAATTTAAATTATCATAAACCACATTAATTCGGAGTCACCTAGTGCAG | 21500 fluorescence intensity (a.u.) |
| TACCTAATTATAAAATAAGTAAGGTTTCCGGGTATGTTTTCGGAGTCACCTAGTGCAG | 16800 fluorescence intensity (a.u.) |
